Test results taken from the antibiotic and cytotoxicity screens of Wong et al. (2023).
The list shows a part of the results.

Legend:
[1] = test system: HSkMC (human skeletal muscle cells); assay: cytotoxicity call (relative viability < 0.9); details: 10 µM
[2] = test system: HepG2; assay: cytotoxicity call (relative viability < 0.9); details: 10 µM
[3] = test system: S. aureus RN4220; assay: growth inhibition call (relative growth <= 0.2); details: 50 µM

Structure (SMILES)	cytotoxicity call [1]	cytotoxicity call [2]	growth inhibition call [3]
C[C@@H]1CN([C@@H](C)CO)C(=O)c2cc(Br)cnc2O[C@H]1CN(C)C(=O)CN1CCOCC1	inactive	inactive	inactive
COc1ccc(S(=O)(=O)Nc2ccc3c(c2)CC(=O)N([C@@H](C)CO)C[C@H](C)[C@@H](CN(C)S(=O)(=O)c2cccs2)O3)cc1	inactive	inactive	inactive
C[C@H]1CN([C@@H](C)CO)C(=O)c2cccc(NS(=O)(=O)c3cn(C)cn3)c2O[C@H]1CN(C)S(=O)(=O)c1ccc(Cl)cc1	inactive	inactive	inactive
O=C(O)CCCNC(=O)c1cccnc1	inactive	inactive	inactive
C[C@@H]1CN([C@H](C)CO)C(=O)c2cccc(NC(=O)c3ccc(-c4nccs4)cc3)c2O[C@H]1CN(C)C(=O)NC1CCCCC1	inactive	inactive	inactive
COc1c(C)c2c(c(O)c1CC=C(C)CCC(=O)O)C(=O)OC2	inactive	active	inactive
COc1cccc(NC(=O)N(C)C[C@H]2Oc3cc(C#Cc4ccncc4)ccc3S(=O)(=O)N([C@@H](C)CO)C[C@H]2C)c1	inactive	active	inactive
C[C@H](CO)N1C[C@H](C)[C@H](CN(C)Cc2ccc(Cl)c(Cl)c2)Oc2ccc(NC(=O)Cn3cnnn3)cc2C1=O	inactive	inactive	inactive
C[C@@H]1CN([C@@H](C)CO)C(=O)c2cc(NC(=O)CCC(F)(F)F)ccc2O[C@@H](C)CCCCO[C@@H]1CN(C)Cc1ccc(C(F)(F)F)cc1	inactive	inactive	inactive
CC(C)NC(=O)N(C)C[C@@H]1Oc2ccc(NS(=O)(=O)c3cccs3)cc2CC(=O)N([C@H](C)CO)C[C@@H]1C	inactive	inactive	inactive
C[C@@H]1CN([C@H](C)CO)C(=O)c2cc(NC(=O)Nc3ccc(F)cc3)ccc2O[C@@H](C)CCCCO[C@@H]1CN(C)S(=O)(=O)c1ccccc1	inactive	inactive	inactive
O=C(CCCCCNC(=O)OC[C@]12N=C3SCC(=O)N3[C@H](c3ccccc3O1)[C@H]2COC(=O)c1ccccc1)NO	inactive	inactive	inactive
COc1ccc(S(=O)(=O)Nc2ccc3c(c2)CC(=O)N([C@@H](C)CO)C[C@H](C)[C@@H](CN(C)S(C)(=O)=O)O3)cc1	inactive	inactive	inactive
O=C(CN1CCOCC1)N[C@@H]1CC[C@H](CCNC(=O)C2CCCCC2)O[C@H]1CO	inactive	inactive	inactive
O=C(CCCCCCCC(=O)NCCO)NCCO	inactive	inactive	inactive
C[C@H]1CCCCO[C@@H](CN(C)CC2CCCCC2)[C@@H](C)CN([C@@H](C)CO)C(=O)c2cc(NC(=O)Nc3ccc(F)cc3)ccc2O1	inactive	active	inactive
CCS(=O)(=O)Nc1ccc2c(c1)C(=O)N(C)[C@H]1CC[C@H](CC(=O)N[C@H]3CCN(Cc4ccccc4)C3)O[C@H]1CO2	inactive	inactive	inactive
Cc1noc(C)c1NC(=O)N(C)C[C@@H]1Oc2ccc(NS(=O)(=O)c3cn(C)cn3)cc2C(=O)N([C@@H](C)CO)C[C@H]1C	inactive	inactive	inactive
COc1ccccc1C(=O)Nc1ccc2c(c1)C(=O)N(C)[C@H]1CC[C@H](CC(=O)NCc3ccc(Cl)c(Cl)c3)O[C@@H]1CO2	inactive	active	inactive
COc1ccc(NC(=O)Nc2ccc3c(c2)C(=O)N([C@@H](C)CO)C[C@@H](C)[C@@H](CN(C)C(=O)c2ccccc2)OCCCC[C@@H](C)O3)cc1	inactive	inactive	inactive
C[C@H](CO)N1C[C@H](C)[C@H](CN(C)Cc2ccncc2)Oc2ccc(NC(=O)c3ccncc3)cc2C1=O	inactive	inactive	inactive
C[C@H](CO)N1C[C@H](C)[C@@H](CN(C)S(=O)(=O)c2cn(C)cn2)Oc2ccc(NC(=O)C3CCCCC3)cc2CC1=O	inactive	inactive	inactive
COc1ccc([C@H]([C@H](Cc2ccccc2)OC(C)=O)N(C[C@H](/C=C/c2ccccc2)OC(C)=O)[C@@H](Cc2ccccc2)C(OC)OC)cc1	inactive	inactive	inactive
C[C@@H]1CCCCO[C@@H](CN(C)C(=O)Nc2ccc(F)cc2)[C@@H](C)CN([C@H](C)CO)C(=O)c2cc(NC(=O)C3CCCCC3)ccc2O1	inactive	inactive	inactive
O=C1N(Cc2ccccc2)Cc2ccccc2[C@H]2OC(c3ccc(OCCCO)cc3)=N[C@@]12CCS(=O)(=O)c1ccccc1	inactive	inactive	inactive
C[C@@H]1CN([C@@H](C)CO)C(=O)Cc2cc(NS(=O)(=O)c3cccs3)ccc2O[C@@H]1CN(C)S(=O)(=O)c1ccc(F)cc1	inactive	inactive	inactive
Cc1cccnc1[C@@H](NC(=O)C1CCN(Cc2ccc(Oc3ccccc3)cc2)CC1)c1ccc(F)cc1	inactive	inactive	inactive

Structure (SMILES)	cytotoxicity call [1]	cytotoxicity call [2]	growth inhibition call [3]
C[C@@H]1CN([C@@H](C)CO)C(=O)c2cc(NS(=O)(=O)c3cn(C)cn3)ccc2O[C@@H]1CN(C)Cc1ccc(C(=O)Nc2ccccc2N)cc1	inactive	inactive	inactive
C[C@@H]1CCCCO[C@H](CN(C)Cc2ccccc2)[C@H](C)CN([C@@H](C)CO)C(=O)c2cc(NC(=O)c3ccncc3)ccc2O1	inactive	inactive	inactive
C=CCN1C(=O)[C@]2(O[C@@H](CCOC(=O)NCCCCCC(=O)NO)[C@H]([Si](C)(C)c3ccc(OC)cc3)[C@H]2C)c2cc(I)ccc21	inactive	inactive	inactive
C[C@H]1CN([C@@H](C)CO)C(=O)c2cc(NS(=O)(=O)c3cn(C)cn3)ccc2O[C@@H]1CN(C)S(=O)(=O)c1ccccc1	inactive	inactive	inactive
COc1ccc(S(=O)(=O)N(C)C[C@H]2Oc3ccc(NS(C)(=O)=O)cc3CC(=O)N([C@H](C)CO)C[C@H]2C)cc1	inactive	inactive	inactive
C[C@H](CO)N1C[C@H](C)[C@@H](CN(C)C(=O)Nc2cccc(C(F)(F)F)c2)OCc2ccccc2-c2ccccc2C1=O	inactive	inactive	inactive
C[C@H](CO)N1C[C@H](C)[C@H](CN(C)C(=O)Nc2cccc(Oc3ccccn3)c2)OCc2cn(nn2)CCCC1=O	inactive	inactive	inactive
Cc1ccc(S(=O)(=O)N2C[C@@H](O)COC[C@@H]3O[C@H](CC(=O)NCCN4CCCCC4)CC[C@H]32)cc1	inactive	inactive	inactive
Cc1cc(=O)oc2cc(O)ccc12	inactive	inactive	inactive
C[C@@H]1CN([C@@H](C)CO)C(=O)Cc2cc(NC(=O)C3CC3)ccc2O[C@H]1CN(C)Cc1ccc(C(=O)O)cc1	inactive	inactive	inactive
Cc1ccc(-c2cnc3c(c2)C(=O)N([C@H](C)CO)C[C@@H](C)[C@H](CN(C)C(=O)Cc2ccncc2)O3)cc1	inactive	inactive	inactive
N#Cc1cc2[nH]c(=O)c(=O)[nH]c2cc1[N+](=O)[O-]	inactive	inactive	inactive
C[C@H](CO)N1C[C@H](C)[C@H](CN(C)S(=O)(=O)c2cn(C)cn2)Oc2ccc(NC(=O)CCC(F)(F)F)cc2C1=O	inactive	inactive	inactive
C[C@@H]1CN([C@@H](C)CO)C(=O)c2cc(NS(=O)(=O)c3cccs3)ccc2O[C@H]1CN(C)Cc1ccc(Cl)c(Cl)c1	inactive	inactive	inactive
C[C@H](CO)N1C[C@H](C)[C@@H](CN(C)C(=O)NC2CCCCC2)Oc2ccc(NS(C)(=O)=O)cc2C1=O	inactive	inactive	inactive
CCCCCCCCCCCCCCCC[N+](C)(C)CCN(Cc1ccc(OC)cc1)c1ncccn1	active	active	inactive
C[C@@H]1CCCCO[C@H](CN(C)S(=O)(=O)c2ccc(F)cc2)[C@@H](C)CN([C@H](C)CO)C(=O)c2cc(NC(=O)NC3CCCCC3)ccc2O1	inactive	active	inactive
C[C@@H]1CN([C@@H](C)CO)C(=O)c2cc(NC(=O)Nc3ccc(F)cc3)ccc2O[C@@H](C)CCCCO[C@H]1CN(C)Cc1ccc(C(=O)O)cc1	inactive	inactive	inactive
C[C@@H]1NC(=O)[C@@]23C(=O)N[C@@H](Cc4ccccc4)[C@@H]2[C@H](C)[C@@]2(C)O[C@H]2[C@H]3/C=C/C/C=C\CNC(=O)[C@@H]2CCCN2C1=O	inactive	inactive	inactive
Cc1ccc(S(=O)(=O)Nc2ccc3c(c2)C(=O)N(C)[C@@H]2CC[C@H](CC(=O)NCCc4ccncc4)O[C@H]2CO3)cc1	inactive	inactive	inactive
C[C@@H]1CN([C@H](C)CO)C(=O)Cc2cc(NC(=O)NC3CCCCC3)ccc2O[C@@H]1CN(C)Cc1ccc(Cl)c(Cl)c1	active	active	inactive
C[C@H]1CCCCO[C@H](CN(C)Cc2ccncc2)[C@@H](C)CN([C@@H](C)CO)C(=O)c2cc(NC(=O)Cc3ccccc3)ccc2O1	inactive	inactive	inactive
C[C@H]1CN([C@@H](C)CO)C(=O)c2cc(/C=C/c3ccccc3)cnc2O[C@H]1CN(C)C(=O)C1CCOCC1	inactive	inactive	inactive
COc1ccc2c3c([nH]c2c1)[C@@H](CO)N(C[C@]13CN(CC2CCCCC2)C1)C(=O)Nc1cccc(c1)F	active	active	inactive
C[C@H](CO)N1C[C@H](C)[C@H](CN(C)C(=O)NC2CCCCC2)Oc2ccc(NC(=O)Cn3cnnn3)cc2C1=O	inactive	inactive	inactive
C[C@H]1CN([C@@H](C)CO)C(=O)c2cccc(NC(=O)c3cnccn3)c2O[C@H]1CN(C)S(=O)(=O)c1ccccc1	inactive	inactive	inactive
CC(C)NC(=O)N(C)C[C@@H]1Oc2ccc(NC(=O)CCC(F)(F)F)cc2CC(=O)N([C@H](C)CO)C[C@H]1C	inactive	inactive	inactive
